# Source: PubChem BioAssay AID588855 (National Center for Advancing Translational Sciences (NCATS), 2011)
# Out of some 410,000 compounds screened, about 5,000 (1.2%) were called active. This list was built around the results that the source calls inconclusive (neither active nor inactive); the mix of calls is not that of the screen. The call rests on the fitted dose curve; in most records, active means well fitted inhibition curve with a large enough effect; inconclusive means small, poorly fitted or top-dose-only effect; inactive means no such curve, though single readings can be large or run the other way. A potency beside an inconclusive call is a rough fit, not a confirmed value.
# Test: qHTS for Inhibitors of TGF-b; further: nearly all actives have a fitted effect of over 65% in size
# Conditions: HepG2 CAGA-GFP TGF-b/SMAD3 reporter, GFP fluorescence, 18 h, TGF-beta stimulated, 500 pg/mL final; series mostly up to 46.1 µM
# Outline: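 First, reporter cells (HEPG2 CAGA-GFP) rested 2 h at 37 degrees C. Next, compounds were pinned in and TGF-beta added to 500 pg/mL final. After 18 h, GFP was imaged per cell and summed per well.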
# Potency means the concentration at half of the fitted maximal effect; tags describe the fitted curve by direction and shape.
row,Compound,Potency
1,COc1ccc(S(=O)(=O)c2c(SC)nn(CC(=O)Nc3cccc(C)c3C)c2N)cc1,"inconclusive: 35.5 µM [inhibitor, single point]"
2,COc1ccc(C(=O)c2c(N)sc3c2CCN(C(=O)OC(C)(C)C)C3)cc1,"inconclusive: 20 µM [inhibitor, single point]"
3,O=C(Cc1ccc2c(c1)OCCO2)N/N=C/c1ccco1,inactive
4,CCN1/C(=C/c2ccc3ccccc3[n+]2CC)C=Cc2ccccc21,active: 1.78 µM
5,CCNC(=O)C1CCN(c2nnc(C)c3c(C)n(-c4ccc(OC)cc4)nc23)CC1,"inconclusive: 35.5 µM [inhibitor, single point]"
6,COc1cc(OC)cc(C(=O)N2CCN(C(=O)c3cccnc3)CC2)c1,inactive
7,Cc1cccc(NC(c2ccccc2C)c2ccc3ccc(C)nc3c2O)n1 (configuration not stated),"inconclusive: 35.5 µM [inhibitor, single point]"
8,Cc1ccc(CSc2nnc(-c3ccccn3)n2Cc2cccs2)cc1,"inconclusive: 10 µM [inhibitor, partial curve]"
9,CCN1C(c2ccccc2)=C(c2ccccc2)S/C1=C/C=C1\SC(=S)N(C)C1=O,inactive
10,O=C(Nc1ccc(Cl)cc1)C1Cc2c(-c3ccc(Cl)cc3)ccnc2O1 (configuration not stated),"inconclusive: 22.4 µM [inhibitor, single point]"
11,Cc1ccc(Nc2nc(N)nc(CN3CCN(c4ccccc4)CC3)n2)cc1Cl,"inconclusive: 10 µM [inhibitor, partial curve, poor fit]"
12,CCCCn1c(NCc2cc(Br)ccc2O)nc2ccccc21,"inconclusive: 7.08 µM [inhibitor, partial curve, poor fit]"
13,COc1ccc(S(=O)(=O)N2CCCCCC2)cc1NC(=O)Cc1n[nH]c(=O)c2ccccc12,"inconclusive: 15.8 µM [inhibitor, single point]"
14,CC(C)n1c(/N=C/c2c[nH]c3ccccc23)nc2ccccc21,"inconclusive: 35.5 µM [inhibitor, single point]"
15,Cc1ccc(S(=O)(=O)N2CCCC(C(=O)NNCC(=O)Nc3cc(F)ccc3F)C2)cc1 (configuration not stated),"inconclusive: 0.708 µM [inhibitor, full curve, poor fit]"
16,Cc1ccc(CN(C)S(=O)(=O)c2c(C)noc2/C=C/N(C)C)cc1,"inconclusive: 35.5 µM [inhibitor, single point]"
17,CC(NC(=O)c1cc(F)c(F)cc1Cl)C1CC2CCC1C2 (configuration not stated),inactive
18,O=C(Nc1ccccc1)c1nc(S(=O)(=O)Cc2ccccc2F)ncc1Cl,active: 3.16 µM
19,Cc1c(C(=O)Nc2ccncc2)oc2c1C(=O)CC(C)(C)C2,"inconclusive: 15.8 µM [inhibitor, partial curve, poor fit]"
20,CCN(c1ccccc1)S(=O)(=O)c1ccc(Oc2ccc(-n3ccnc3)cc2)nc1,"inconclusive: 35.5 µM [inhibitor, single point]"
21,COc1ccc(OC)c(-c2csc(NC(=O)C3CSC4(C)CCC(=O)N34)n2)c1 (configuration not stated),inactive
22,COc1ccc(CCNc2oc(-c3cccc4ccccc34)nc2P(=O)(OC)OC)cc1OC,inactive
23,Cc1ccccc1C(=O)N=c1ccn(-c2nc3ccccc3nc2NS(=O)(=O)c2ccc(F)cc2)cc1,"inconclusive: 8.91 µM [inhibitor, partial curve]"

row,Compound,Potency
1,CC(C)Cn1c(C23CC4CC(CC(C4)C2)C3)n[nH]c1=S,inactive
2,COc1ccc(OC)c(-c2nc(C(=O)NC3CCN(Cc4ccccc4)CC3)cc3c2[nH]c2ccccc23)c1,inactive
3,CCn1c(C(=O)N2CCC(C(=O)NCCCSC3CCCCC3)CC2)cc2sccc21,"inconclusive: 35.5 µM [inhibitor, single point]"
4,C(=N\N(Cc1ccccc1)c1ccccc1)/c1cccnc1,"inconclusive: 10 µM [inhibitor, single point]"
5,CC(C)Cn1cnc2c(c(-c3ccccc3)c(-c3ccccc3)n2Cc2ccco2)c1=N,"inconclusive: 35.5 µM [inhibitor, single point]"
6,Cc1cccc(N2CCN(C(=O)c3ccc4[nH]c(C)c(C)c4c3)CC2)c1C,"inconclusive: 20 µM [inhibitor, single point]"
7,Cc1c(OCc2ccc(C(=O)O)cc2)ccc2c(-c3ccccc3)cc(=O)oc12,"inconclusive: 35.5 µM [inhibitor, single point]"
8,O=C(N/N=C/c1c[nH]c2ccc(Br)cc12)c1ccn(Cc2ccc(Cl)cc2Cl)n1,"inconclusive: 28.2 µM [inhibitor, single point]"
9,CCc1nnc(SCC(=O)Nc2ccccc2)n1CC1CCCO1 (configuration not stated),"inconclusive: 35.5 µM [inhibitor, single point]"
10,CN(C)c1ccc(-c2ccnc3c2CC(C)(C(=O)Nc2ccc(F)c(Cl)c2)O3)cc1 (configuration not stated),"inconclusive: 12.6 µM [inhibitor, single point]"
11,C=C(C)COc1ccc(-c2nc(N)nc(C)c2Oc2ccccc2OC)c(O)c1,"inconclusive: 20 µM [inhibitor, single point]"
12,CC(=O)ON=C1C=CC(=C(C#N)c2ccccc2)C=C1,"inconclusive: 22.4 µM [inhibitor, single point]"
13,Cc1ccc(NC(=O)CCNS(=O)(=O)c2cccc3nonc23)cc1Cl,"inconclusive: 35.5 µM [inhibitor, single point]"
14,COc1ccc(-n2c(-c3ccc(C)cc3)cc3c2CC(C)(C)CC3=O)c(OC)c1,"inconclusive: 35.5 µM [inhibitor, single point]"
15,Cn1c(SCc2nc3ccccc3c(=O)[nH]2)nc2ccccc21,"inconclusive: 1.41 µM [inhibitor, partial curve, poor fit]"
16,CC1Cc2ccccc2N1C(=O)CSc1nnc2n1C(C)(C)Cc1ccccc1-2 (configuration not stated),inactive
17,CN1C(=O)c2ccccc2Sc2ccc(NC(=O)NCc3cccc(Cl)c3)cc21,active: 10 µM
18,COC(=O)c1sccc1NC(=O)c1csc(C)c1,"inconclusive: 25.1 µM [inhibitor, single point]"
19,Cc1ccc2c(c1)C(=O)C(=O)N2CCCOc1ccccc1,active: 17.8 µM
20,O=C(/C=C/c1ccco1)Nc1nc(-c2ccc(F)c(F)c2)cs1,"inconclusive: 3.55 µM [inhibitor, full curve, poor fit]"
21,COCC(=O)N1CCN(c2cccc(C(F)(F)F)c2)CC1,inactive
22,O=C(Nc1ccc(OCC(F)(F)C(F)F)c(C(F)(F)F)c1)c1ccc(Cl)cc1,"inconclusive: 6.31 µM [inhibitor, single point]"
23,CCOC(=O)c1ccc(NS(=O)(=O)c2ccc(SC)cc2)cc1,"inconclusive: 0.178 µM [inhibitor, full curve, poor fit]"

row,Compound,Potency
1,Cc1ccc(CCNC(=O)C2CCC(=O)N(CC3CCCCC3)C2)cc1 (configuration not stated),"inconclusive: 6.31 µM [inhibitor, single point]"
2,CCOC(=O)c1cn(Cc2c(C)c(C)c(C)c(C)c2C)nn1,inactive
3,COc1ccc(-c2csc3ncnc(N4CCN(c5cccc(OC)c5)CC4)c23)cc1,"inconclusive: 3.16 µM [inhibitor, single point]"
4,CCN(CC)S(=O)(=O)c1ccc(C(=O)NCCSc2c(-c3ccc(C)cc3)[nH]c3ccccc23)cc1,inactive
5,CCN(CC)S(=O)(=O)c1ccc(C)c(NC(=O)CN2CCN(Cc3ccccc3)CC2)c1,"inconclusive: 6.31 µM [inhibitor, partial curve, poor fit]"
6,CCCCN(CCCC)c1ccc(C(=O)c2ccccc2C(=O)O)c(O)c1,"inconclusive: 14.1 µM [inhibitor, single point]"
7,CC1CC(C)CN(C(=O)c2ccc3c(c2)N(Cc2ccccc2)CCS3)C1 (configuration not stated),"inconclusive: 35.5 µM [inhibitor, single point]"
8,CCc1ccc(NC(=O)C(C)n2nc(C)c([N+](=O)[O-])c2C)cc1 (configuration not stated),"inconclusive: 6.31 µM [inhibitor, single point]"
9,COCCCNC(=O)c1ccc2nc3ccccc3c(=O)n2c1,"inconclusive: 22.4 µM [inhibitor, partial curve, poor fit]"
10,COc1ccc(S(=O)(=O)n2nc(-c3ccc(Cl)cc3)cc2N)cc1,active: 12.6 µM
11,O=C(Cc1ccc([N+](=O)[O-])cc1)N1CCCCCC1,inactive
12,COc1ccc(CCNC(=O)Cn2nnc(-c3ccc(N(C)C)cc3)n2)cc1OC,"inconclusive: 35.5 µM [inhibitor, single point]"
13,Nc1c(-c2n[nH]c(=S)n2-c2ccc(Cl)cc2Cl)cnn1-c1ccccc1,"inconclusive: 20 µM [inhibitor, single point]"
14,COc1ccc(C(C)=O)cc1CC(=O)N(Cc1ccccc1)c1ccccc1,"inconclusive: 0.708 µM [inhibitor, full curve, poor fit]"
15,CCOc1ccc(OCC(=O)Nc2nccs2)cc1,inactive
16,CC1(C)CN(c2ccc(Br)cc2Br)C1=O,inactive
17,O=C(Cc1ccc2c(c1)OCCO2)N1CCN(S(=O)(=O)c2cccc(Cl)c2Cl)CC1,"inconclusive: 7.08 µM [inhibitor, partial curve]"
18,CCOc1ccc(C(=O)COC(=O)Cn2[nH]c(=O)c3ccccc3c2=O)cc1,inactive
19,COc1ccccc1NC(=O)CSc1nnc(-c2ccco2)n1Cc1ccco1,"inconclusive: 22.4 µM [inhibitor, single point]"
20,COc1ccccc1CNc1cc(CSc2ccc(Cl)cc2)nc(C)n1,"inconclusive: 22.4 µM [inhibitor, single point]"
21,Cc1ccc(N2CCN(C(=O)c3cc(S(=O)(=O)N4CCCCC4)c[nH]3)CC2)c(C)c1,"inconclusive: 35.5 µM [inhibitor, single point]"
